Hit rate of the full screen: of about 50,000 compounds, about 800 (1.6%) showed an effect of 50% or more. This is one part of the list.

The experiment addresses Bcl-2-like protein 10 (Homo sapiens) (UniProt Q9HD36). Description: TR3 peptide-Bcl-B binding displacers, biochemical primary FP assay, phenotype converters (AID 1240).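 Note: 0% = Bcl-B with tracer peptide and DMSO and 100% = tracer peptide lacking Bcl-B.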 The conditions noted are these: GST-Bcl-B / FITC-TR3 peptide fluorescence polarization; stronger effect = higher value; compound at 3.75 mg/L.
Chain of UniProt Q9HD36 (Q9HD36 whole entry, looked up): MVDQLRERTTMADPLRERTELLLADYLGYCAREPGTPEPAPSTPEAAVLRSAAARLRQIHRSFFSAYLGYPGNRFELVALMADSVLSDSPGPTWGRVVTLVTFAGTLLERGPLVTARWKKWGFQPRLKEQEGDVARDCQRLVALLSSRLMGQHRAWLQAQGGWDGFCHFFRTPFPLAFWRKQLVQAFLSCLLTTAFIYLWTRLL
Regarding `COc1cc(C2C3=C(CC(C)(C)CC3=O)NC3=C2C(=O)CC(C)(C)C3)ccc1OCc1ccc(Cl)cc1`, the displacement is -8%. On to `CC1=CCC(/C=N\Nc2nnc3c(n2)[nH]c2ccccc23)CC1` (stereo unspecified), for which the displacement was determined as 19.9%.

For the compound `CCOC(=O)C1(C)/C(=N\Nc2ccccc2OC)C(=O)C(=O)N1c1ccccc1` (stereo unspecified), the displacement is -12%. In the case of `COc1ccc(CCNC(=O)COc2ccc(Br)cc2)cc1OC` it was -11%. With `COc1cc(/C=N/NC(=O)C(=O)N2CCCC2)ccc1O`, the displacement was -4.6%.

`COc1cccc(NC(=O)c2ccc3ccccc3n2)c1`: the displacement came to 8.4%. For `CCc1ccccc1N(CC(=O)Nc1ccc2ccccc2c1)S(C)(=O)=O`, the displacement came out at 1.7%.

`Cc1occc1C(=O)N/N=C/c1ccc[nH]1`: the displacement was -14.1%. Consider `O=[N+]([O-])c1ccccc1S(=O)(=O)Nc1ccccc1`, for which the displacement came out at 10.4%. In the case of `CNC(=O)/C(=C/c1ccccc1)NC(=O)c1ccccc1` it was -1.7%; in that of `Cc1cccc(OCC(=O)Nc2cccnc2)c1`, 8.7%. For `COc1ccc(C(=O)Nc2ccc(S(=O)(=O)NC(C)=O)cc2)cc1OC`, the displacement came to 10.4%. Consider `CCc1nnc(NS(=O)(=O)c2ccc(NC(=S)NC(=O)/C=C/c3ccc(C(C)C)cc3)cc2)s1`, for which the displacement was found to be 15.4%. On to `NC(=O)c1ccc(NC(=O)c2ccc3ccccc3c2)cc1`, for which the displacement was -1.7%.

For `Cc1cc(C)c2cccc(NC(=S)NC(=O)c3cccc([N+](=O)[O-])c3)c2n1`, the displacement was determined as 9.6%.

As for `COc1cc(/C=N/NC(=O)COc2ccccc2[N+](=O)[O-])ccc1OCc1ccccc1`, the displacement stood at 1.1%.

For the compound `CCCOC(=O)c1c(-c2ccc(OC)c(OC)c2)csc1N`, the displacement came out at 7.1%. Then `CC1(C)CC(=O)C(C=NCCN2CCN(C(=O)CC3CCCC3)CC2)=C(O)C1`, with -13.3%; and `COc1ccc2oc(=O)c(C(=O)NCCC3=CCCCC3)cc2c1`, with -8.9%; and `Cc1cccc(NC(=O)c2ccc(-c3ccccc3)cc2)c1`, with 14.5%. Then `O=C1NC(=S)N(c2ccc(F)cc2)C(=O)C1=Cc1ccc([N+](=O)[O-])s1`, with 28.4%; and `Cc1ccc(N[C@@H]2C[C@H](O)[C@@H](CO)O2)cc1C`, with 1.2%; and `O=C(O)CSc1nnc(-c2cccs2)n1-c1ccccc1`, with 8.6%. Then `Cc1cc(C(F)(F)F)c(C#N)c(SCC#N)n1`, with -10.2%. In the case of `Cc1ccc(SC2CC(=O)N(c3ccccc3C(F)(F)F)C2=O)cc1` (stereo unspecified), the displacement worked out at 1.6%. Take `CCc1nc2ccccc2n1CC(O)COC1CCCCC1` (stereo unspecified): the displacement is -10.7%. Turning to `COC(=O)c1cc(NC(=O)c2ccc(-c3ccc([N+](=O)[O-])cc3)o2)cc(C(=O)OC)c1`, the displacement is 26.6%.

In the case of `COc1ccc(OCC(=O)N2c3ccc(C)cc3-c3c(ssc3=S)C2(C)C)cc1`, the displacement was determined as 7.5%. With `CC(C)(C)NCCCCOc1c(Cl)cccc1Cl`, the displacement turned out to be 5.8%. Take `Nc1sc2c(c1C(=O)Nc1ccccc1)CCCC2`: the displacement was found to be 1.9%. As for `O=S(=O)(c1ccc(Cl)cc1)N1CCN(C2CC3CCC2C3)CC1` (stereo unspecified), the displacement was 6.7%. In the case of `O=C(c1ccc(Cl)cc1)N1CCN(c2ccc([N+](=O)[O-])cc2C(F)(F)F)CC1`, the displacement was -1.2%.

Regarding `N#C/C(=N/Nc1cccc(C(F)(F)F)c1)c1nc(-c2ccccc2)cs1`, the displacement was -4.4%. Turning to `CC(=O)C1=C(O)C(=O)N(CC2CCCO2)C1c1cccc(F)c1` (stereo unspecified), the displacement was -0.7%. Regarding `O=C(/C=C\c1cccs1)c1cccc([N+](=O)[O-])c1`, the displacement turned out to be 11.5%. Regarding `Cc1cc(C=O)c(C)n1-c1ccc([N+](=O)[O-])cc1`, the displacement turned out to be 10.7%.

As to `O=C(Nc1ccccc1C(=O)N1CCOCC1)c1cccc(F)c1`, the displacement was -6.1%. Turning to `Cc1ccc(OCCOCCOc2ccc(Br)cc2/C=c2\sc3nc4ccccc4n3c2=O)cc1`, the displacement is 4.5%. Regarding `CCOC(=O)c1sc(NC(=O)c2cc(Cl)ccc2OC)nc1C`, the displacement was -8.7%. With `CC(C)=CC1C(C(=O)Nc2ccc(Br)cn2)C1(C)C` (stereo unspecified), the displacement is -9.3%. On to `CN(C)/C(=N\S(=O)(=O)c1ccc(Br)cc1)c1ccccc1`, for which the displacement is 96.8%. Turning to `Cc1nnc(SCC(=O)N2c3cc(C)c(C)cc3-c3c(ssc3=S)C2(C)C)s1`, the displacement is -9.2%. For `COC(=O)/C(C#N)=C/c1c(OC)[nH]c2ccccc12`, the displacement is 21.8%.

With `C=CCN1C(=O)/C(=C\c2c(OC)ccc3ccccc23)C(=O)NC1=S`, the displacement was -8%. For `CCOC(=O)/C(C#N)=C/c1ccc(OCc2c(C)no[n+]2[O-])cc1`, the displacement was -1.9%.

For the compound `N/C(=N\N=C\c1ccccc1Cl)c1nonc1N`, the displacement is -12.9%. In the case of `CCOc1ccccc1N(CC(=O)NCC1CCCO1)S(=O)(=O)c1ccccc1` (stereo unspecified) it was 2.2%.

With `O=C(Nc1ccccc1C(=O)Nc1ccc(Br)cc1)c1cccs1`, the displacement was -1.4%. Then `Cc1ccc(NC(=O)c2c(-c3ccccc3Cl)noc2C)c(C)c1`, with 13.2%. In the case of `CC(=O)C1=C(O)C(=O)N(CCN2CCNCC2)C1c1ccccc1Cl` (stereo unspecified) it was -9.5%. Turning to `COc1cc(/C=C2\C(=O)N(c3cccc(Cl)c3)N=C2C)cc(Cl)c1O`, the displacement is -10.1%. On to `CCOC(=O)C(=CNc1ccc(Cl)cc1Cl)C(=O)OCC`, for which the displacement is -5.8%. Take `COc1cc(Br)c(C2CC(=O)Nc3ccc4ccccc4c32)cc1OC` (stereo unspecified): the displacement is -17.8%.

For `COC(=O)c1c(NC(=O)c2cccnc2)sc2c1C(C(=O)OC)CC2` (stereo unspecified), the displacement was -2.2%. On to `Cc1ccccc1-c1nc(Cc2ccccc2Cl)no1`, for which the displacement was found to be 9.5%. For the compound `COc1ccc(C2CC(c3ccc(C)cc3)=NN2C(C)=O)cc1OC` (stereo unspecified), the displacement came out at 7.6%. `CC(=O)N/N=C/c1c[nH]c2ccccc12`: the displacement was -1.5%. Turning to `C/C(=N/OCC(=O)Nc1oc(-c2ccccc2)c(-c2ccccc2)c1C#N)c1cccs1`, the displacement is -8%. Consider `CN1CCN(c2nc3ccccc3nc2N2CCN(C)CC2)CC1`, for which the displacement is -10.7%. On to `O=C(O)C(Cc1ccccc1)N1C(=O)/C(=C/c2ccc(F)cc2)SC1=S` (stereo unspecified), for which the displacement came to 5.3%. Then `COc1cc(NC(=O)c2cnn3c2NC(c2cccs2)CC3C(F)(F)F)c(OC)cc1Cl` (stereo unspecified), with 1.3%; and `CCC(=O)N(CCC1(c2ccccc2)CCOC(C)(C)C1)Cc1ccc(N(C)C)cc1` (stereo unspecified), with 1.3%.

`Nc1c(C(=O)Nc2ccccc2)nnn1Cc1ccccc1`: the displacement was -7.1%.

Regarding `O=C(c1cccnc1)N1CCC(Cc2ccccc2)CC1`, the displacement was found to be 0.5%.

Take `CCCc1ccc(-c2nc(-c3ccc(C)cc3)no2)cc1`: the displacement was -16.3%.

In the case of `Cc1nc2cc(-c3ccc(Cl)cc3)nn2c(C)c1Cl`, the displacement was -3.3%.

For the compound `Fc1ccc(NC(=S)N2CCCc3ccccc32)cc1`, the displacement was -3.9%.

Regarding `Oc1ccc(Br)cc1/C=N/Nc1cc(N2CCOCC2)nc(N2CCOCC2)n1`, the displacement was 15.1%.

In the case of `COc1ccc(NC(=O)CN(c2ccc(OC)cc2)S(=O)(=O)c2ccc(C)cc2)cc1`, the displacement came to 5%.

Turning to `CCOC(=O)CNC(=O)c1cc(C(=O)OC)cc([N+](=O)[O-])c1`, the displacement came out at 5.2%. In the case of `CCOC(=O)Cc1csc(NC(=O)COc2cc(C)ccc2C(C)(C)C)n1` it was -1.3%. For the compound `Cc1ccc(C)c(N2C(=O)C3C4C=CC(C5CC45)C3C2=O)c1` (stereo unspecified), the displacement turned out to be 2.7%. Consider `CC(NC(=O)C(=O)NCCN1CCN(C(=O)c2ccc(Cl)cc2Cl)CC1)c1ccccc1` (stereo unspecified), for which the displacement is -4.3%. Consider `Cc1cccc(NC(=O)CSc2nnc(-c3ccccc3)c(-c3ccccc3)n2)c1`, for which the displacement was determined as 15.1%.

`O=C(Nc1cccc(Cl)c1)Nc1nnc(COc2ccc(Br)cc2)s1`: the displacement was 25.9%.

`CCOC(=O)c1cc2c(n(-c3ccccc3)c1=O)CCCC2=O`: the displacement stood at 0.6%. Then `CCOC(=O)c1cc(-c2ccc(O)cc2)nc2ccccc12`, with 8.3%; and `O=C(CSc1nc2ccccc2s1)Nc1ccc(F)c([N+](=O)[O-])c1`, with -4.2%. `COc1ccc(C(=O)Nc2nc3ccccc3s2)c(OC)c1`: the displacement is 15%. Take `Cc1ccc(N2C(=O)NC(=O)/C(=C/c3cccc(C(F)(F)F)c3)C2=O)cc1`: the displacement was -4%. With `Cc1cccc(C(=O)NNC(=O)c2ccc(Cl)cc2)c1O`, the displacement is -4.5%.

For the compound `O=S(=O)(Nc1ccc2c(c1)OCO2)c1ccc2ccccc2c1`, the displacement worked out at 15.4%. `NS(=O)(=O)c1ccc(-c2ccc(/C=C3/SC(=S)N(CC(=O)O)C3=O)o2)cc1`: the displacement was -123%. Take `C=CCNC(=O)C(=O)Nc1ccc(Cl)c(Cl)c1`: the displacement was determined as 10.8%.

Turning to `CCCC(=O)Nc1ccc2oc(-c3cc(Br)ccc3Cl)nc2c1`, the displacement is -6.6%. In the case of `O=[N+]([O-])c1ccc(Cl)c(S(=O)(=O)NCc2ccccn2)c1` it was 12.3%. In the case of `CCCCc1ccc(-c2csc(/C(C#N)=C/c3ccc(O)c(OCC)c3)n2)cc1`, the displacement came out at 6.2%. For `O=C(CCCC(=O)N1CCCCC1)NCc1ccco1`, the displacement was 5.5%. With `O=C(NC(=O)c1ccccc1)Oc1ccc([N+](=O)[O-])cc1`, the displacement is -1.2%.

Take `O=C(O)CCC(=O)Nc1ccccc1-c1ccccc1`: the displacement was 15.5%. In the case of `CCOc1ccc(NC(=O)C2=C(C)NC(=O)NC2c2cccc(OC)c2OC)cc1` (stereo unspecified) it was -7%. Consider `CCN(CC)c1ccc(Nc2nc(-c3c(C)nc4ccccn34)cs2)cc1`, for which the displacement was -34.4%. For the compound `COc1ccc(OC(C)C(=O)Nc2ccc(F)cc2)cc1` (stereo unspecified), the displacement turned out to be 12.3%. Consider `Cc1cc(C)cc(N2C(=O)NC(=O)/C(=C\c3ccc(N4CCOCC4)o3)C2=O)c1`, for which the displacement is -145%.

As to `COc1cc(SC)ccc1C(=O)N1CCCC(C)C1` (stereo unspecified), the displacement came to 0.6%. As to `C=CCN1C(=O)/C(=C/c2c(C)cc(C)cc2C)SC1=S`, the displacement was found to be 5.5%. Take `CC(C)c1ccc(-c2nc3sc4c(c3c(=O)[nH]2)CCCC4)cc1`: the displacement was -13.5%. For `O=C(Nc1ccccn1)c1ccccc1O`, the displacement was 1%. For the compound `Cc1n[nH]c(C)c1CCCCOc1ccccc1`, the displacement is 11.1%. With `CCc1ccccc1NC(=O)/C(C#N)=C\c1ccc(Sc2ccccc2)o1`, the displacement was -12.2%. In the case of `O=C1N=c2ccc(Br)cc2=C1c1sc(=S)n(Cc2ccco2)c1O` it was 22.5%.

For the compound `CC(C)CNC(=O)NC1C(NC(=O)NCC(C)C)N(C)C(=O)N1C` (stereo unspecified), the displacement was 0.7%. `COc1ccc(C(=O)NCCNc2ccc([N+](=O)[O-])cc2)cc1OC`: the displacement was 6.5%. Turning to `O=[N+]([O-])c1ccc(C2NN=C(c3ccccc3)S2)cc1` (stereo unspecified), the displacement was -1.4%. Then `CCN1C(=O)/C(=C\c2ccccc2OCCOc2cccc(OC)c2)SC1=S`, with 0.8%; and `CC/C(=N\NC(=O)c1ccc(C)o1)c1ccccc1O`, with -6.5%; and `Cc1cccc(C)c1NC(=O)C1CCCNC1` (stereo unspecified), with -4.6%. In the case of `C/C(=N\N=C1\NC(=O)C(CC(=O)Nc2ccc(Cl)cc2Cl)S1)c1ccc(Cl)cc1` (stereo unspecified), the displacement turned out to be 15.5%. In the case of `O=C(Nc1ccc(Cl)cc1)c1ccccc1F` it was -4.2%; in that of `CCOC(=O)C1NN=C(C(=O)c2ccccc2)C1c1ccc(Cl)cc1` (stereo unspecified), 0.8%; in that of `CC(C)COC(=O)c1ccc(NC(=O)COc2ccc(Cl)cc2Cl)cc1`, -2.5%.

(Values after PubChem BioAssay AID1240 (Sanford-Burnham Center for Chemical Genomics, 2008).)
